# According to the supplement of paper PMC8728848:
# The other results are listed elsewhere or left out.
# B1: PILRa (Homo sapiens), Q9UKJ1 (protein)
# chain: MGRPLLLPLLPLLLPPAFLQPSGSTGSGPSYLYGVTQPKHLSASMGGSVEIPFSFYYPWELATAPDVRISWRRGHFHRQSFYSTRPPSIHKDYVNRLFLNWTEGQKSGFLRISNLQKQDQSVYFCRVELDTRSSGRQQWQSIEGTKLSITQAVTTTTQRPSSMTTTWRLSSTTTTTGLRVTQGKRRSDSWHISLETAVGVAVAVTVLGIMILGLICLLRWRRRKGQQRTKATTPAREPFQNTEEPYENIRNEGQNTDPKLNPKDDGIVYASLALSSSTSPRAPPSHRPLKSPQNETLYSVLKA
# Legend:
# Test in all cases: glycan array binding signal (z-score within array); higher = stronger binding
# Settings in all cases: glycan notation: IUPAC condensed, linker removed
# [1] = target: Gal(b1-3)GlcNAc(b1-3)Gal(b1-4)GlcNAc
# How it was run: (§1)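 Columns mapping to the same glycan were averaged after glycan names were converted to IUPAC-condensed notation. The data come from 3228 arrays in the Consortium for Functional Glycomics database, limited to those with an available protein sequence. Binding is reported as a within-array Z-score averaged across arrays of one protein sequence and across linkers.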
# [2] = target: Gal(b1-3)GlcNAc(b1-3)Gal(b1-4)GlcNAc(b1-6)[Gal(b1-3)GlcNAc(b1-3)]Gal(b1-4)Glc
# How it was run: as §1
# [3] = target: Gal(b1-3)GlcNAc(b1-3)Gal(b1-4)[Fuc(a1-3)]GlcNAc(b1-6)[Gal(b1-3)GlcNAc(b1-3)]Gal(b1-4)Glc
# How it was run: as §1
# [4] = target: Gal(b1-3)GlcNAc(b1-3)GalNAc
# How it was run: as §1
# [5] = target: Gal(b1-3)GlcNAc(b1-6)Gal(b1-4)GlcNAc
# How it was run: as §1
# [6] = target: Gal(b1-3)[Fuc(a1-4)]GlcNAc
# How it was run: as §1
# [7] = target: Gal(b1-3)[Fuc(a1-4)]GlcNAc(b1-2)Man(a1-3)[Gal(b1-3)[Fuc(a1-4)]GlcNAc(b1-2)Man(a1-6)]Man(b1-4)GlcNAc(b1-4)GlcNAc
# How it was run: as §1
# [8] = target: Gal(b1-3)[Fuc(a1-4)]GlcNAc(b1-2)Man(a1-3)[Gal(b1-3)[Fuc(a1-4)]GlcNAc(b1-2)Man(a1-6)]Man(b1-4)GlcNAc(b1-4)[Fuc(a1-6)]GlcNAc
# How it was run: as §1
# [9] = target: Gal(b1-3)[Fuc(a1-4)]GlcNAc(b1-3)Gal(b1-3)[Fuc(a1-4)]GlcNAc
# How it was run: as §1
# [10] = target: Gal(b1-3)[Fuc(a1-4)]GlcNAc(b1-3)Gal(b1-4)GlcNAc
# How it was run: as §1
# [11] = target: Gal(b1-3)[Fuc(a1-4)]GlcNAc(b1-3)Gal(b1-4)[Fuc(a1-3)]GlcNAc
# How it was run: as §1
# [12] = target: Gal(b1-3)[GlcNAc(b1-6)]GalNAc
# How it was run: as §1
# [13] = target: Gal(b1-3)[Neu5Ac(a2-6)]GalNAc
# How it was run: as §1
# [14] = target: Gal(b1-3)[Neu5Ac(a2-6)]GlcNAc(b1-6)Gal(b1-4)Glc
# How it was run: as §1
# [15] = target: Gal(b1-3)[Neu5Ac(b2-6)]GalNAc
# How it was run: as §1
# Gal(b1-4)Gal = target: Gal(b1-4)Gal
# How it was run: as §1
# [16] = target: Gal(b1-4)GalNAc(a1-3)[Fuc(a1-2)]Gal(b1-4)GlcNAc
# How it was run: as §1
# [17] = target: Gal(b1-4)GalNAc(b1-3)[Fuc(a1-2)]Gal(b1-4)GlcNAc
# How it was run: as §1
# Gal(b1-4)Glc = target: Gal(b1-4)Glc
# How it was run: as §1
# Gal(b1-4)Glc6S = target: Gal(b1-4)Glc6S
# How it was run: as §1
# Gal(b1-4)GlcNAc = target: Gal(b1-4)GlcNAc
# How it was run: as §1
# [18] = target: Gal(b1-4)GlcNAc(a1-6)Gal(b1-4)GlcNAc
# How it was run: as §1
# [19] = target: Gal(b1-4)GlcNAc(b1-2)Man(a1-3)Man(b1-4)GlcNAc(b1-4)GlcNAc
# How it was run: as §1
# [20] = target: Gal(b1-4)GlcNAc(b1-2)Man(a1-3)[Gal(b1-4)GlcNAc(b1-2)Man(a1-6)]Man(b1-4)GlcNAc(b1-4)GlcNAc
# How it was run: as §1
# [21] = target: Gal(b1-4)GlcNAc(b1-2)Man(a1-3)[Gal(b1-4)GlcNAc(b1-2)Man(a1-6)]Man(b1-4)GlcNAc(b1-4)[Fuc(a1-6)]GlcNAc
# How it was run: as §1
# [22] = target: Gal(b1-4)GlcNAc(b1-2)Man(a1-3)[Gal(b1-4)GlcNAc(b1-2)][GlcNAc(b1-4)]Man(b1-4)GlcNAc(b1-4)GlcNAc
# How it was run: as §1
# [23] = target: Gal(b1-4)GlcNAc(b1-2)Man(a1-3)[GlcNAc(b1-2)Man(a1-6)]Man(b1-4)GlcNAc(b1-4)GlcNAc
# How it was run: as §1
# [24] = target: Gal(b1-4)GlcNAc(b1-2)Man(a1-3)[Man(a1-6)]Man(b1-4)GlcNAc(b1-4)GlcNAc
# How it was run: as §1
# [25] = target: Gal(b1-4)GlcNAc(b1-2)Man(a1-6)Man(b1-4)GlcNAc(b1-4)GlcNAc
# How it was run: as §1
# [26] = target: Gal(b1-4)GlcNAc(b1-2)Man(a1-6)[GlcNAc(b1-2)Man(a1-3)]Man(b1-4)GlcNAc(b1-4)GlcNAc
# How it was run: as §1
# [27] = target: Gal(b1-4)GlcNAc(b1-2)Man(a1-6)[Man(a1-3)]Man(b1-4)GlcNAc(b1-4)GlcNAc
# How it was run: as §1
# [28] = target: Gal(b1-4)GlcNAc(b1-2)[Gal(b1-4)GlcNAc(b1-4)]Man(a1-3)[Gal(b1-4)GlcNAc(b1-2)Man(a1-6)]Man(b1-4)GlcNAc(b1-4)GlcNAc
# How it was run: as §1
# [29] = target: Gal(b1-4)GlcNAc(b1-2)[Gal(b1-4)GlcNAc(b1-4)]Man(a1-3)[Gal(b1-4)GlcNAc(b1-2)[Gal(b1-4)GlcNAc(b1-6)]Man(a1-6)]Man(b1-4)GlcNAc(b1-4)GlcNAc
# How it was run: as §1
# [30] = target: Gal(b1-4)GlcNAc(b1-2)[Gal(b1-4)GlcNAc(b1-4)]Man(a1-3)[GlcNAc(b1-4)][Gal(b1-4)GlcNAc(b1-2)Man(a1-6)]Man(b1-4)GlcNAc(b1-4)GlcNAc
# How it was run: as §1
# [31] = target: Gal(b1-4)GlcNAc(b1-2)[Gal(b1-4)GlcNAc(b1-6)]Man(a1-6)[GlcNAc(b1-4)][Gal(b1-4)GlcNAc(b1-2)Man(a1-3)]Man(b1-4)GlcNAc(b1-4)GlcNAc
# How it was run: as §1
# [32] = target: Gal(b1-4)GlcNAc(b1-3)Gal(b1-3)GlcNAc
# How it was run: as §1
# [33] = target: Gal(b1-4)GlcNAc(b1-3)Gal(b1-4)Glc
# How it was run: as §1
binder,measurement,setting,value
B1,glycan array binding signal (z-score),[1],-0.248
same,glycan array binding signal (z-score),[2],0.017
same,glycan array binding signal (z-score),[3],-0.214
same,glycan array binding signal (z-score),[4],-0.173
same,glycan array binding signal (z-score),[5],-0.136
same,glycan array binding signal (z-score),[6],0.066
same,glycan array binding signal (z-score),[7],0.034
same,glycan array binding signal (z-score),[8],-0.145
same,glycan array binding signal (z-score),[9],-0.153
same,glycan array binding signal (z-score),[10],-0.315
same,glycan array binding signal (z-score),[11],-0.112
same,glycan array binding signal (z-score),[12],-0.213
same,glycan array binding signal (z-score),[13],-0.098
same,glycan array binding signal (z-score),[14],0.123
same,glycan array binding signal (z-score),[15],-0.21
same,glycan array binding signal (z-score),Gal(b1-4)Gal,-0.244
same,glycan array binding signal (z-score),[16],-0.252
same,glycan array binding signal (z-score),[17],-0.011
same,glycan array binding signal (z-score),Gal(b1-4)Glc,-0.064
same,glycan array binding signal (z-score),Gal(b1-4)Glc6S,0.053
same,glycan array binding signal (z-score),Gal(b1-4)GlcNAc,-0.173
same,glycan array binding signal (z-score),[18],-0.276
same,glycan array binding signal (z-score),[19],-0.196
same,glycan array binding signal (z-score),[20],-0.184
same,glycan array binding signal (z-score),[21],-0.268
same,glycan array binding signal (z-score),[22],-0.113
same,glycan array binding signal (z-score),[23],-0.28
same,glycan array binding signal (z-score),[24],-0.217
same,glycan array binding signal (z-score),[25],-0.255
same,glycan array binding signal (z-score),[26],-0.376
same,glycan array binding signal (z-score),[27],-0.266
same,glycan array binding signal (z-score),[28],-0.188
same,glycan array binding signal (z-score),[29],-0.123
same,glycan array binding signal (z-score),[30],-0.063
same,glycan array binding signal (z-score),[31],-0.037
same,glycan array binding signal (z-score),[32],-0.309
same,glycan array binding signal (z-score),[33],-0.016
